Data from patent US6448281B1 (Boehringer Ingelheim (Canada) Ltd., priority 2000, dated 2002).

The compounds below were run against hepatitis C virus RNA dependent polymerase (NS5B) (Hepacivirus hominis (Hepatitis C virus), UniProt P26663) (assay: Inhibition of NS5B RNA dependent RNA polymerase activity (SPA, UMP-[5,6 3H] incorporation)). Details: IC50 μM, Table 2.
C=CCC(NC(=O)c1ccc2c(c1)nc(-c1ccccn1)n2C1CCCCC1)c1ccc(OC)c(OC)c1 (stereo not drawn) [Entry 2013] showed an IC50 of 10 to 25 µM. Cc1cnc(-c2nc3cc(C(=O)N[C@@H](Cc4c[nH]c5ccc(O)cc45)C(=O)O)ccc3n2C2CCCCC2)cn1 [Entry 2143] showed an IC50 of under 1 µM. Work on COc1cccc(-c2nc3cc(C(=O)N[C@@H](Cc4c[nH]c5ccc(O)cc45)C(=O)O)ccc3n2C2CCCCC2)c1O [Entry 2105] yielded an IC50 of 1 to 5 µM. COc1ccc(C(NC(=O)c2ccc3c(c2)nc(-c2ccc(OCc4ccccc4)cc2)n3C2CCCCC2)C(=O)O)cc1OC (stereo not drawn) [Entry 2030] was tested, and the IC50 was 10 to 25 µM. With O=C(N[C@@H](Cc1c[nH]c2ccc(O)cc12)C(=O)O)c1ccc2c(c1)nc(-c1cccc(Oc3ccccc3)c1)n2C1CCCCC1 [Entry 2084] the IC50 was 1 to 5 µM. Work on COc1ccc(C(CC(C)C)NC(=O)c2ccc3c(c2)nc(-c2ccccn2)n3C2CCCCC2)cc1OC (stereo not drawn) [Entry 2051] yielded an IC50 of 5 to 10 µM. Cc1nnsc1-c1nc2cc(C(=O)N[C@@H](Cc3c[nH]c4ccc(O)cc34)C(=O)O)ccc2n1C1CCCCC1 [Entry 2141] showed an IC50 of under 1 µM. COc1cc(CNC(=O)c2ccc3c(c2)nc(-c2ccccn2)n3C2CCCCC2)ccc1O [Entry 2057] gave an IC50 of 5 to 10 µM. With COc1ccc(CCNC(=O)c2ccc3c(c2)nc(-c2ccc(O)cc2)n3C2CCCCC2)cc1OC [Entry 2001] the IC50 was 10 to 25 µM. O=C(N[C@@H](Cc1c[nH]c2ccc(O)cc12)C(=O)O)c1ccc2c(c1)nc(-c1cn[nH]c1)n2C1CCCCC1 [Entry 2142] was tested, and the IC50 was under 1 µM. Work on CC(C)[C@H](NC(=O)c1ccc2c(c1)nc(-c1ccccn1)n2C1CCCCC1)C(=O)O [Entry 2006] yielded an IC50 of 10 to 25 µM. In the case of O=C(N[C@@H](c1ccccc1)[C@H](O)c1ccccc1)c1ccc2c(c1)nc(-c1ccccn1)n2C1CCCCC1 [Entry 2009], the IC50 is reported as 10 to 25 µM.

Same assay, conditions: IC50 μM, Table 3
Work on COc1ccc(C(NC(=O)c2ccc3c(c2)nc(-c2ccoc2)n3C2CCCCC2O)C(=O)O)cc1OC (stereo not drawn) [Entry 3001] yielded an IC50 of 5 to 10 µM.

Same assay, conditions: IC50 μM, Table 4
In the case of O=C(N[C@@H](Cc1c[nH]c2ccc(O)cc12)C(=O)O)c1cnc2c(c1)nc(-c1ccccn1)n2C1CCCCC1 [Entry 4001], the IC50 is reported as under 1 µM.

Same assay, conditions: IC50 μM, Table 5
Cc1c(C(=O)N[C@@H](Cc2c[nH]c3ccc(OCC(=O)O)cc23)C(=O)O)ccc2c1nc(-c1ccoc1)n2C1CCCCC1 [Entry 5008, (S)-3-(5-Carboxymethoxy-1H-indol-3-yl)-2-{[1-(1-cyclohexyl-2-furan-3-yl-4-methyl-1H-benzimidazol-5-yl)-methanoyl]-amino}-propionic acid] showed an IC50 of under 1 µM.

Same assay, conditions: IC50 μM, Table 22
For O=C(O)COc1ccc2[nH]cc(C[C@H](NC(=O)c3ccc4c(c3)nc(-c3ccoc3)n4[C@@H]3CCCC[C@H]3O)C(=O)O)c2c1 [Entry 22008], the IC50 was under 1 µM. With CC1CCC(C)C1n1c(-c2ccoc2)nc2cc(C(=O)NC(Cc3c[nH]c4ccc(O)cc34)C(=O)O)ccc21 (stereo not drawn) [Entry 22011] the IC50 was under 1 µM. O=C(N[C@@H](Cc1c[nH]c2ccc(O)cc12)C(=O)O)c1ccc2c(c1)nc(-c1ccoc1)n2CC1CC1 [Entry 22015] showed an IC50 of under 1 µM.

Same assay, conditions: IC50 μM, first compound table (printed title TABLE 10; Table 1)
Compound CC(=O)Nc1nc([C@H](Cc2ccc(OCC(=O)O)cc2)NC(=O)c2ccc3c(c2)nc(-c2ccoc2)n3C2CCCCC2)cs1 [Entry 1134, [4((S)-2-(2-Acetylamino-thiazol-4-yl)-2-{[1-(1-cyclohexyl-2-furan-3-yl-1H-benzimidazol-5-yl)-methanoyl]-amino}-ethyl)-phenoxy]-acetic Acid] has an IC50 of 1 to 5 µM. In the case of NC1CCC(NC(=O)c2ccc3c(c2)nc(-c2ccoc2)n3C2CCCCC2)CC1 (stereo not drawn) [Entry 1183], the IC50 is reported as 1 to 5 µM. O=C(NC1CCN(C(=O)Nc2ccccc2C(=O)O)CC1)c1ccc2c(c1)nc(-c1ccoc1)n2C1CCCCC1 [Entry 1201] was tested, and the IC50 was 10 to 25 µM. With O=C(O)CCNC(=O)N[C@H]1CC[C@H](NC(=O)c2ccc3c(c2)nc(-c2ccoc2)n3C2CCCCC2)CC1 [Entry 1215] the IC50 was 10 to 25 µM. CC(Cc1ccc(O)cc1)(NC(=O)c1ccc2c(c1)nc(-c1ccoc1)n2C1CCCCC1)C(=O)O (stereo not drawn) [Entry 1028] gave an IC50 of 1 to 5 µM. With COc1ccc(C[C@H](NC(=O)c2ccc3c(c2)nc(-c2ccoc2)n3C2CCCCC2)C(=O)O)cc1 [Entry 1022] the IC50 was 1 to 5 µM. With COC(=O)[C@H](Cc1ccc(O)cc1)NC(=O)c1ccc2c(c1)nc(-c1ccoc1)n2C1CCCCC1 [Entry 1071] the IC50 was 1 to 5 µM. In the case of O=C(NCCc1ccc(O)cc1)c1ccc2c(c1)nc(-c1ccoc1)n2C1CCCCC1 [Entry 1025], the IC50 is reported as 5 to 10 µM. For O=C(NC(C(=O)O)c1ccc(C(F)(F)F)cc1)c1ccc2c(c1)nc(-c1ccoc1)n2C1CCCCC1 (stereo not drawn) [Entry 1002], the IC50 was 10 to 25 µM. Compound O=C(O)CCC(=O)N[C@H]1CC[C@H](NC(=O)c2ccc3c(c2)nc(-c2ccoc2)n3C2CCCCC2)CC1 [Entry 1222] has an IC50 of 10 to 25 µM. For O=C(N[C@@H](Cc1c[nH]c2ccc([N+](=O)[O-])cc12)C(=O)O)c1ccc2c(c1)nc(-c1ccoc1)n2C1CCCCC1 [Entry 1125, (S)-2-{[1-(1-Cyclohexyl-2-furan-3-yl-1H-benzimidazol-5-yl)-methanoyl]-amino}-3-(5-nitro-1H-indol-3-yl)-propionic Acid], the IC50 was 1 to 5 µM. In the case of CCOC(=O)c1cccc(NC(=O)NC2CCCC(NC(=O)c3ccc4c(c3)nc(-c3ccoc3)n4C3CCCCC3)C2)c1 (stereo not drawn) [Entry 1206], the IC50 is reported as 10 to 25 µM. O=C(O)c1ccc(C(=O)NNC(=O)c2ccc3c(c2)nc(-c2ccoc2)n3C2CCCCC2)cc1 [Entry 1302, 4-{N′-[1-(1-Cyclohexyl-2-furan-3-yl-1H-benzimidazol-5-yl)-methanoyl]-hydrazinocarbonyl}-benzoic Acid] was tested, and the IC50 was 1 to 5 µM. Compound O=C(N[C@@H](Cc1ccc(O)cc1)c1cscn1)c1ccc2c(c1)nc(-c1ccoc1)n2C1CCCCC1 [Entry 1250, 1-Cyclohexyl-2-furan-3-yl-1H-benzimidazole-5-carboxylic Acid [(S)-2-(4-Hydroxy-phenyl)-1-thiazol-4-yl-ethyl]-amide] has an IC50 of 1 to 5 µM. Work on O=C(NCC1CCN(C(=O)Nc2ccccc2C(=O)O)CC1)c1ccc2c(c1)nc(-c1ccoc1)n2C1CCCCC1 [Entry 1197] yielded an IC50 of 10 to 25 µM. In the case of O=C(CCNC(=O)c1ccc2c(c1)nc(-c1ccoc1)n2C1CCCCC1)NC(Cc1cnc[nH]1)C(=O)O (racemic) [Entry 1228, 2-(3-{[1-(1-Cyclohexyl-2-furan-3-yl-1H-benzimidazol-5-yl)-methanoyl]-amino}-propanoylamino)-3-(3H-imidazol-4-yl)-propionic Acid], the IC50 is reported as 10 to 25 µM. O=C(N[C@@H](Cc1ccc(O)c([N+](=O)[O-])c1)C(=O)O)c1ccc2c(c1)nc(-c1ccoc1)n2C1CCCCC1 [Entry 1019] showed an IC50 of 1 to 5 µM. O=C(NC(Cc1cc(F)c(O)c(F)c1)C(=O)O)c1ccc2c(c1)nc(-c1ccoc1)n2C1CCCCC1 (racemic) [Entry 1153, 2-{[1-(1-Cyclohexyl-2-furan-3-yl-1H-benzimidazol-5-yl)-methanoyl]-amino}-3-(3,5-difluoro-4-hydroxy-phenyl)-propionic Acid] showed an IC50 of 1 to 5 µM. O=C(O)/C=C/c1ccc(CN[C@H]2CC[C@H](NC(=O)c3ccc4c(c3)nc(-c3ccoc3)n4C3CCCCC3)CC2)cc1 [Entry 1279] showed an IC50 of 1 to 5 µM. With O=C(NC(Cc1cccc(O)c1)C(=O)O)c1ccc2c(c1)nc(-c1ccoc1)n2C1CCCCC1 (stereo not drawn) [Entry 1023] the IC50 was 1 to 5 µM.

Same assay, conditions: IC50, Table 11
Compound COC(=O)[C@H](Cc1cn(C)c2ccc(OCC(=O)O)cc12)NC(=O)c1ccc2c(c1)nc(-c1ccoc1)n2C1CCCCC1 [Entry 11017] has an IC50 of under 1 µM.

Same assay, conditions: IC50, Table 13
CS(=O)(=O)Nc1ccc2[nH]cc(C[C@H](NC(=O)c3ccc4c(c3)nc(-c3ccoc3)n4C3CCCCC3)C(N)=O)c2c1 [Entry 13006, 1-Cyclohexyl-2-furan-3-yl-1H-benzimidazole-5-carboxylic Acid [(S)-1-Carbamoyl-2-(5-methanesulfonylamino-1H-indol-3-yl)-ethyl]-amide] was tested, and the IC50 was under 1 µM. CN(C)CCNC(=O)[C@H](Cc1c[nH]c2ccc(O)cc12)NC(=O)c1ccc2c(c1)nc(-c1ccoc1)n2C1CCCCC1 [Entry 13015, 1-Cyclohexyl-2-furan-3-yl-1H-benzimidazole-5-carboxylic Acid [(S)-1-(2-Dimethylamino-ethylcarbamoyl)-2-(5-hydroxy-1H-indol-3-yl)-ethyl]-amide] showed an IC50 of under 1 µM. For NC(=O)[C@H](Cc1c[nH]c2ccc(N)cc12)NC(=O)c1ccc2c(c1)nc(-c1ccoc1)n2C1CCCCC1 [Entry 13005, 1-Cyclohexyl-2-furan-3-yl-1H-benzimidazole-5-carboxylic Acid [(S)-2-(5-Amino-1H-indol-3-yl)-1-carbamoyl-ethyl]-amide], the IC50 was under 1 µM. Cn1cc(C[C@H](NC(=O)c2ccc3c(c2)nc(-c2ccoc2)n3C2CCCCC2)C(N)=O)c2cc(O)ccc21 [Entry 13002, 1-Cyclohexyl-2-furan-3-yl-1H-benzimidazole-5-carboxylic Acid [(S)-1-carbamoyl-2-(5-hydroxy-1-methyl-1H-indol-3-yl)-ethyl]-amide] was tested, and the IC50 was under 1 µM.

Same assay, conditions: IC50, Table 14
In the case of CNc1nc([C@H](Cc2c[nH]c3ccc(O)cc23)NC(=O)c2ccc3c(c2)nc(-c2ccoc2)n3C2CCCCC2)cs1 [Entry 14004, 1-Cyclohexyl-2-furan-3-yl-1H-benzimidazole-5-carboxylic Acid [(S)-2-(5-Hydroxy-1H-indol-3-yl)-1-(2-methylamino-thiazol-4-yl)-ethyl]-amide], the IC50 is reported as under 1 µM.

Same assay, conditions: IC50, Table 16
CC(=O)Nc1ccc(C[C@H](NC(=O)c2ccc3c(c2)nc(-c2ccoc2)n3C2CCCCC2)C(=O)O)cc1 [Entry 16031, (S)-3-(4-Acetylaminophenyl)-2-{[1-(1-Cyclohexyl-2-furan-3-yl-1H-benzoimidazol-5-yl)-methanoyl]-amino}-propionic Acid] showed an IC50 of under 1 µM. O=C(O)CCCCOc1ccc(C[C@H](NC(=O)c2ccc3c(c2)nc(-c2ccoc2)n3C2CCCCC2)C(=O)O)cc1 [Entry 16042] gave an IC50 of under 1 µM. Nc1ccc(C[C@H](NC(=O)c2ccc3c(c2)nc(-c2ccoc2)n3C2CCCCC2)C(=O)O)cc1 [Entry 16003] was tested, and the IC50 was under 1 µM. Compound NC(=O)[C@H](Cc1ccc(O)c(/C=C/C(=O)O)c1)NC(=O)c1ccc2c(c1)nc(-c1ccoc1)n2C1CCCCC1 [Entry 16062, (E)-3-[5-((S)-2-Carbamoyl-2-{[1-(1-cyclohexyl-2-furan-3-yl-1H-benzimidazol-5-yl)-methanoyl]-amino}-ethyl)-2-hydroxy-phenyl]-acrylic Acid] has an IC50 of under 1 µM.
